The list shows a part of the results.
target: T1, MBP-FoxP1dN (Mus musculus, UniProt P58462 326-579); test: PD-seq (MBP pull-down with sequencing); 20 mM Tris-HCl pH 7.5, 100 mM NaCl, 1.5 mM MgCl2, 0.4 uM protein, 0.1 uM dsDNA library, 30 min, room temperature, amylose pull-down; high values mean tight binding; details: protein: recombinant; tags: His6-MBP; chain copies: 2; dsDNA, one strand shown
T1 sequence: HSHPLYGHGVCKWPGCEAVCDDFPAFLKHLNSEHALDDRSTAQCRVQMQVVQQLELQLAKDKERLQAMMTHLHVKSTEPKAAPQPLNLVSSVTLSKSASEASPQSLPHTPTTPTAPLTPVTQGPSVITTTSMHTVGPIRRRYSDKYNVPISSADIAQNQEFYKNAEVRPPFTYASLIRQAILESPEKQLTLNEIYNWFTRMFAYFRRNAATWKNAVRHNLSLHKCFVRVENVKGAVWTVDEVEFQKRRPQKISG
How it was run: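 Binding is the reads-per-million enrichment of pull-down relative to input, pooled across replicates. For this, 0.4 µM His6-MBP-tagged mouse FoxP3 or FoxP1 fragment lacking the N-terminus, made in E. coli, was incubated with 0.1 µM Klenow-filled double-stranded degenerate DNA library for 30 min at room temperature in Tris pH 7.5 buffer with NaCl and MgCl2. Complexes bound to amylose resin were washed three times before proteinase K released the DNA for PCR barcoding and Illumina sequencing.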

| Sequence | binding signal |
| --- | --- |
| GATGATTGTTCTCCCAGCTGATGAATTTCGCCTGTCGAGTAAACAAATTTTCCTAATCTTTCTGTTCAAGCGCCATCTAC | 0.826 RPM ratio (pull-down/input) |
| GATGATTGTTCTCCCAGCTGATGAATTAGTTTCGTCGAGTAAACAAATTTTCCTAATCTTTCTGTTCAAGCGCCATCTAC | 0.978 RPM ratio (pull-down/input) |
| GATGATTGTTCTCCCAGCTGATGAATTGATAATGTCGAGTAAACAAATTTTCCTAATCTTTCTGTTCAAGCGCCATCTAC | 1.19 RPM ratio (pull-down/input) |
| GATGATTGTTCTCCCAGCTGATGAATTCAATCCCTCGAGTAAACAAATTTTCCTAATCTTTCTGTTCAAGCGCCATCTAC | 0.823 RPM ratio (pull-down/input) |
| GATGATTGTTCTCCCAGCTGATGAATTCTTATGATCGAGTAAACAAATTTTCCTAATCTTTCTGTTCAAGCGCCATCTAC | 0.993 RPM ratio (pull-down/input) |
| GATGATTGTTCTCCCAGCTGATGAATTTATATAGTCGAGTAAACAAATTTTCCTAATCTTTCTGTTCAAGCGCCATCTAC | 1.13 RPM ratio (pull-down/input) |
| GATGATTGTTCTCCCAGCTGATGAATTGGCAGCATCGAGTAAACAAATTTTCCTAATCTTTCTGTTCAAGCGCCATCTAC | 0.996 RPM ratio (pull-down/input) |
| GATGATTGTTCTCCCAGCTGATGAATTTGTTACTTCGAGTAAACAAATTTTCCTAATCTTTCTGTTCAAGCGCCATCTAC | 1.45 RPM ratio (pull-down/input) |
| GATGATTGTTCTCCCAGCTGATGAATTTGAGCACTCGAGTAAACAAATTTTCCTAATCTTTCTGTTCAAGCGCCATCTAC | 0.862 RPM ratio (pull-down/input) |
| GATGATTGTTCTCCCAGCTGATGAATTCCGCCGGTCGAGTAAACAAATTTTCCTAATCTTTCTGTTCAAGCGCCATCTAC | 0.758 RPM ratio (pull-down/input) |
| GATGATTGTTCTCCCAGCTGATGAATTCGGACCTTCGAGTAAACAAATTTTCCTAATCTTTCTGTTCAAGCGCCATCTAC | 0.794 RPM ratio (pull-down/input) |
| GATGATTGTTCTCCCAGCTGATGAATTACTTGTCTCGAGTAAACAAATTTTCCTAATCTTTCTGTTCAAGCGCCATCTAC | 1.11 RPM ratio (pull-down/input) |
| GATGATTGTTCTCCCAGCTGATGAATTCGTATGGTCGAGTAAACAAATTTTCCTAATCTTTCTGTTCAAGCGCCATCTAC | 0.913 RPM ratio (pull-down/input) |
| GATGATTGTTCTCCCAGCTGATGAATTGCGGAACTCGAGTAAACAAATTTTCCTAATCTTTCTGTTCAAGCGCCATCTAC | 0.98 RPM ratio (pull-down/input) |
| GATGATTGTTCTCCCAGCTGATGAATTCTCAGCTTCGAGTAAACAAATTTTCCTAATCTTTCTGTTCAAGCGCCATCTAC | 0.794 RPM ratio (pull-down/input) |
| GATGATTGTTCTCCCAGCTGATGAATTCCCTGGATCGAGTAAACAAATTTTCCTAATCTTTCTGTTCAAGCGCCATCTAC | 0.811 RPM ratio (pull-down/input) |
| GATGATTGTTCTCCCAGCTGATGAATTCCCCCTTTCGAGTAAACAAATTTTCCTAATCTTTCTGTTCAAGCGCCATCTAC | 0.861 RPM ratio (pull-down/input) |
| GATGATTGTTCTCCCAGCTGATGAATTGAGCGCCTCGAGTAAACAAATTTTCCTAATCTTTCTGTTCAAGCGCCATCTAC | 0.896 RPM ratio (pull-down/input) |
| GATGATTGTTCTCCCAGCTGATGAATTGATCCTATCGAGTAAACAAATTTTCCTAATCTTTCTGTTCAAGCGCCATCTAC | 0.983 RPM ratio (pull-down/input) |
| GATGATTGTTCTCCCAGCTGATGAATTTGCAACATCGAGTAAACAAATTTTCCTAATCTTTCTGTTCAAGCGCCATCTAC | 1.7 RPM ratio (pull-down/input) |

| Sequence | binding signal |
| --- | --- |
| GATGATTGTTCTCCCAGCTGATGAATTCATCGGATCGAGTAAACAAATTTTCCTAATCTTTCTGTTCAAGCGCCATCTAC | 0.838 RPM ratio (pull-down/input) |
| GATGATTGTTCTCCCAGCTGATGAATTCTACTTGTCGAGTAAACAAATTTTCCTAATCTTTCTGTTCAAGCGCCATCTAC | 0.912 RPM ratio (pull-down/input) |
| GATGATTGTTCTCCCAGCTGATGAATTACGTCGCTCGAGTAAACAAATTTTCCTAATCTTTCTGTTCAAGCGCCATCTAC | 1.02 RPM ratio (pull-down/input) |
| GATGATTGTTCTCCCAGCTGATGAATTGCTTCCTTCGAGTAAACAAATTTTCCTAATCTTTCTGTTCAAGCGCCATCTAC | 1.06 RPM ratio (pull-down/input) |
| GATGATTGTTCTCCCAGCTGATGAATTGCGTGCCTCGAGTAAACAAATTTTCCTAATCTTTCTGTTCAAGCGCCATCTAC | 1.09 RPM ratio (pull-down/input) |
| GATGATTGTTCTCCCAGCTGATGAATTTTTATGCTCGAGTAAACAAATTTTCCTAATCTTTCTGTTCAAGCGCCATCTAC | 0.981 RPM ratio (pull-down/input) |
| GATGATTGTTCTCCCAGCTGATGAATTTGTCAGTTCGAGTAAACAAATTTTCCTAATCTTTCTGTTCAAGCGCCATCTAC | 1.07 RPM ratio (pull-down/input) |
| GATGATTGTTCTCCCAGCTGATGAATTTCTATGCTCGAGTAAACAAATTTTCCTAATCTTTCTGTTCAAGCGCCATCTAC | 0.85 RPM ratio (pull-down/input) |
| GATGATTGTTCTCCCAGCTGATGAATTTTCCCCGTCGAGTAAACAAATTTTCCTAATCTTTCTGTTCAAGCGCCATCTAC | 0.906 RPM ratio (pull-down/input) |
| GATGATTGTTCTCCCAGCTGATGAATTAAGGAGTTCGAGTAAACAAATTTTCCTAATCTTTCTGTTCAAGCGCCATCTAC | 0.779 RPM ratio (pull-down/input) |
| GATGATTGTTCTCCCAGCTGATGAATTTAACCCGTCGAGTAAACAAATTTTCCTAATCTTTCTGTTCAAGCGCCATCTAC | 0.896 RPM ratio (pull-down/input) |
| GATGATTGTTCTCCCAGCTGATGAATTCCCTATGTCGAGTAAACAAATTTTCCTAATCTTTCTGTTCAAGCGCCATCTAC | 0.802 RPM ratio (pull-down/input) |
| GATGATTGTTCTCCCAGCTGATGAATTCTAAAGGTCGAGTAAACAAATTTTCCTAATCTTTCTGTTCAAGCGCCATCTAC | 0.876 RPM ratio (pull-down/input) |
| GATGATTGTTCTCCCAGCTGATGAATTTTGCTCATCGAGTAAACAAATTTTCCTAATCTTTCTGTTCAAGCGCCATCTAC | 0.986 RPM ratio (pull-down/input) |
| GATGATTGTTCTCCCAGCTGATGAATTCGCAAATTCGAGTAAACAAATTTTCCTAATCTTTCTGTTCAAGCGCCATCTAC | 0.933 RPM ratio (pull-down/input) |
| GATGATTGTTCTCCCAGCTGATGAATTCCCTCGTTCGAGTAAACAAATTTTCCTAATCTTTCTGTTCAAGCGCCATCTAC | 0.824 RPM ratio (pull-down/input) |
| GATGATTGTTCTCCCAGCTGATGAATTCTCTTTATCGAGTAAACAAATTTTCCTAATCTTTCTGTTCAAGCGCCATCTAC | 0.967 RPM ratio (pull-down/input) |
| GATGATTGTTCTCCCAGCTGATGAATTGGGGGAATCGAGTAAACAAATTTTCCTAATCTTTCTGTTCAAGCGCCATCTAC | 0.848 RPM ratio (pull-down/input) |
| GATGATTGTTCTCCCAGCTGATGAATTTGATATTTCGAGTAAACAAATTTTCCTAATCTTTCTGTTCAAGCGCCATCTAC | 1.13 RPM ratio (pull-down/input) |
| GATGATTGTTCTCCCAGCTGATGAATTACCCAAATCGAGTAAACAAATTTTCCTAATCTTTCTGTTCAAGCGCCATCTAC | 1.04 RPM ratio (pull-down/input) |

From publication PMC12820563, “FoxP3 forms a head-to-head dimer in vivo and stabilizes its multimerization on adjacent microsatellites”
